In PubChem BioAssay AID1508623 (National Center for Advancing Translational Sciences (NCATS), 2021):
The whole screen tested about 48,000 compounds, of which about 450 (0.94%) were called active. This list was built around the results that the source calls inconclusive (neither active nor inactive); the mix of calls is not that of the screen. The call rests on the fitted dose curve; in most records, active means well fitted inhibition curve with a large enough effect; inconclusive means small, poorly fitted or top-dose-only effect; inactive means no such curve, though single readings can be large or run the other way. Potencies beside an inconclusive call are fits to weak or partial responses and may not hold up.

assay: Primary qHTS for Identification of Small Molecule Inhibitors of Huntingtin Promoter Activity; conditions: HEK293 HTT promoter firefly luciferase reporter (activity 0% = vehicle and -100% = no light), 24 h; activity change, negative = inhibition: at 57.5 µM (top of the series); further: nearly all actives have a fitted effect of over 50% in size
Method in brief: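 Luminescence was read after Dual-Glo reagent and a 10 min room-temperature incubation. Values were normalized to vehicle (0% activity) and zero RLU (-100% activity). Reporter HEK293 cells had been exposed to compounds (up to 57.5 uM final) for 24 h.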
Potency means the concentration at half of the fitted maximal effect; tags describe the fitted curve by direction and shape.

| SMILES | activity change, negative = inhibition | Potency |
| --- | --- | --- |
| Cc1ccc2nc(N(Cc3cccnc3)C(=O)CCS(=O)(=O)c3ccccc3)sc2c1 | inactive: 8.47% |  |
| Cc1ccc(CN(Cc2ccco2)C(=O)COc2ccc(C(C)C)cc2)cc1 |  | inconclusive: 17.8 µM [inhibitor, single point] |
| CCOC(=O)C1CCN(C(=O)c2ccc3c(=O)n4nc(Nc5cc(C)ccc5C)sc4nc3c2)CC1 |  | inconclusive: 39.8 µM [inhibitor, partial curve, poor fit] |
| CCOc1cccc(C2c3c(-c4cc(C)ccc4O)n[nH]c3C(=O)N2Cc2ccco2)c1 (stereo not drawn) |  | inconclusive: 35.5 µM [inhibitor, single point] |
| CCC(=O)C1=C(c2cccc(OC)c2)N(C(=O)CC)n2c(nnc2C2CCCCC2)S1 |  | inconclusive: 39.8 µM [inhibitor, single point] |
| Cc1ccc(NC(=O)Cn2c(=O)oc3cc(S(=O)(=O)NCc4ccccc4)ccc32)cc1 |  | inconclusive: 35.5 µM [inhibitor, partial curve, poor fit] |
| Cc1cccc2c1-c1sc(C(=O)N(C)c3cccc(C(F)(F)F)c3)cc1CO2 |  | inconclusive: 22.4 µM [inhibitor, partial curve] |
| Cc1ccccc1-n1nc(CO)c(C(=O)NCc2cccs2)n1 |  | inconclusive: 39.8 µM [inhibitor, single point] |
| CN(C)CCCN1c2ccccc2CCc2ccc(Cl)cc21 |  | inconclusive: 1.53 µM [inhibitor, full curve] and inactive |
| Cc1c(Cl)cccc1NC(=O)C1CCCN(c2nnc(-n3c(C)ccc3C)s2)C1 (stereo not drawn) |  | inconclusive: 22.4 µM [inhibitor, partial curve, poor fit] |
| COc1ccc(CNC(=O)Cn2c(=O)nc(-c3ccccc3F)c3cc(Cl)ccc32)cc1 | inactive: -27.9% |  |
| COc1ccc(C2=C(C)C(=O)N(Cc3ccc(C(=O)Nc4cccc(F)c4)cc3)S2(=O)=O)cc1 |  | inconclusive: 11.2 µM [inhibitor, partial curve] |
| CCCC1=Nc2cc(C(=O)NCCc3ccc(OCC)cc3)ccc2Sc2ccccc21 |  | inconclusive: 39.8 µM [inhibitor, single point] |
| Cc1cccc(NC(=O)Cn2cc(C(=O)C3CCCCC3)c3ccccc32)c1C |  | inconclusive: 8.91 µM [inhibitor, full curve] |
| Cc1ccc(CNC(=O)C(=O)NCC(c2cccnc2)N2CCN(c3ccc(F)cc3)CC2)cc1 (stereo not drawn) |  | inconclusive: 17.8 µM [inhibitor, partial curve, poor fit] |
| CC(C)=CCCC(C)=CCCC(C)=CCSc1ccccc1C(=O)O |  | inconclusive: 8.63 µM [inhibitor, partial curve] |
| Cc1ccccc1CNC(=O)Cn1ccc2cc(S(=O)(=O)N3CCCCC3)ccc21 |  | inconclusive: 14.1 µM [inhibitor, single point] |
| Cc1cccc(C(=O)Nc2ccc(C(=O)OCc3cc(=O)n4c5c(sc4n3)CCCC5)cc2)c1 |  | inconclusive: 14.1 µM [inhibitor, partial curve, poor fit] |
| COc1ccccc1NC(=O)Cn1c(=O)n(Cc2cccs2)c(=O)c2cccnc21 |  | inconclusive: 39.8 µM [inhibitor, single point] |

| SMILES | activity change, negative = inhibition | Potency |
| --- | --- | --- |
| CC(C)(C)c1ccc(S(=O)(=O)Nc2ccc(O)c(Sc3nc4ccccc4s3)c2)cc1 |  | inconclusive: 15.8 µM [inhibitor, partial curve, poor fit] |
| Cc1ccc(C)c(N2CCN(C(=O)c3cc4c(=O)n(Cc5cccs5)ccc4nc3C)CC2)c1 |  | inconclusive: 28.2 µM [inhibitor, single point] |
| CCOc1cc(NC(C)=O)ccc1C(=O)OC | inactive: -0.722% |  |
| Cc1ccc(C)c(CN2C(=O)c3ccccc3S(=O)c3ccc(C(=O)N(C)Cc4ccccc4)cc32)c1 (stereo not drawn) |  | inconclusive: 28.2 µM [inhibitor, partial curve, poor fit] |
| CCCCOc1ccc(CNC(=O)c2ccc(NC(=O)N3CCSc4ncccc43)cc2)cc1 |  | inconclusive: 11.2 µM [inhibitor, partial curve, poor fit] |
| O=C(Nc1nc(-c2ccc(Br)cc2)ns1)c1ccccc1F | inactive: -8.65% |  |
| COC(=O)CCN(C(=O)c1c(C)oc2ncnc(N3CCOCC3)c12)c1ccccc1 |  | inconclusive: 35.5 µM [inhibitor, single point] |
| Cc1cccc(N2CCN(C(=O)C3CCN(S(=O)(=O)c4ccc5c(c4)oc(=O)n5C)CC3)CC2)c1C |  | inconclusive: 17.8 µM [inhibitor, partial curve, poor fit] |
| CCC(=O)N1CCc2cc(S(=O)(=O)N(C)c3cccc(C)c3)ccc21 | inactive: -15.3% |  |
| CCN(c1cc(C)cc(C)c1)S(=O)(=O)c1nnc(NC(=O)c2cccc(F)c2)s1 |  | inconclusive: 20 µM [inhibitor, partial curve, poor fit] |
| COc1c(C)c2c(c(O)c1CC=C(C)CCC(=O)O)C(=O)OC2 | inactive: -22.8% |  |
| CCN(c1ccc(C)cc1)S(=O)(=O)c1nnc(NC(=O)c2cccs2)s1 |  | inconclusive: 25.1 µM [inhibitor, single point] |
| CCN(CC)CCNC(=O)c1cc2c(=O)[nH]c3ccc(C)cc3c2s1 | inactive: -28.5% |  |
| COc1ccc2c(c1)CCc1sc(NC(=O)c3ccc(Br)cc3)nc1-2 |  | inconclusive: 39.8 µM [inhibitor, single point] |
| CC(C)CN(CCNC(=O)c1cn(C)c2ccc(S(=O)(=O)N3CCCCCC3)cc2c1=O)CC(C)C | inactive: -16.2% [at 11.5 µM] |  |
| CCCSc1ncc(Cl)c(C(=O)N(Cc2cccc(Cl)c2)C2CCS(=O)(=O)C2)n1 (stereo not drawn) |  | inconclusive: 35.5 µM [inhibitor, partial curve, poor fit] |
| COC(=O)c1ccc(NS(=O)(=O)c2ccc3[nH]c4c(c3c2)CCCC4)cc1 | inactive: -14.7% |  |
| CCC(=O)N1CCc2cc(S(=O)(=O)NCCC(=O)NCc3ccc(C)cc3)ccc21 |  | inconclusive: 0.316 µM [inhibitor, single point] |
| COc1ccc(-c2cc3c(=O)n(CC(=O)Nc4cc(F)ccc4F)ccn3n2)cc1OC |  | inconclusive: 39.8 µM [inhibitor, partial curve, poor fit] |
